Laboratory results reported in PubChem BioAssay (NCATS).
The inconclusive results got no clear call from the source; some entries with a clear call stand among them for comparison. For some assays here: Where the call is inconclusive, the potency comes from a doubtful curve fit. For some assays here: A note “side channel” means that the fit belongs to a control or component signal, not to the main read-out. Active and inactive are the calls of the source. Unless noted, the call rests on the fitted dose curve; in most records, active means well fitted curve in either direction with a large enough effect (not every such curve was filed as active); inconclusive means small, poorly fitted or top-dose-only effect, or another doubt; inactive means flat fitted curve, though single readings scatter.

Experiments:
[1] = AP1 Signaling Pathway (AID 357); settings: ME-180 AP-1-bla reporter, EGF-induced, beta-lactamase ratio, 5 h; at 17.2 µM (top of the series) unless noted; further: top concentration of the series differs between compounds; on the % scale 0 is the no-effect control and ±100 the full control effect
How it was run: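 First, ME-180 AP-1-bla cells were cultured overnight at 37 °C in low-serum Opti-MEM. Next, titrated compounds with EC50 EGF were incubated 5 hours. Finally, CCF4 was added for 2.5 hours and the 460/530 nm ratio recorded.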

[2] = NFAT Signaling Pathway (AID 444); settings: Jurkat NFAT-bla M1, carbachol, beta-lactamase ratio, 5 h; at 17.2 µM (top of the series) unless noted;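 further: carbachol stimulus at about its EC50 of 1 µM final; on the % scale 0 is the no-effect control and ±100 the full control effect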
How it was run: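 Jurkat cells with NFAT-driven β-lactamase reporter and co-expressed M1 receptor, stimulated with carbachol (final 1 uM, ~EC50), compound titration, 5 h at 37 °C. CCF4 loaded 1 h at RT; 460/530 nm ratio gave %activity and AC50.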

[3] = target: Cytochrome P450 1A2 (Homo sapiens) (UniProt P05177); experiment: p450-cyp1a2 (AID 410; calls by dose curve; further: potency means the concentration at half of the fitted maximal effect;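 on activity change, negative = inhibition: top concentration of the series differs between compounds; -100% = full effect of reference inhibitor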)
How it was run: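 20nM CYP1A2, 100uM Luciferin-ME (=Km), 100mM KPO4; cpd 10 min RT; +NADPH regen, 60 min RT; stop/detect 20 min; luminescence. Normalized to furafylline 57 uM = full inhibition.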

[4] = target: Cytochrome P450 2C19 (Homo sapiens) (UniProt P33261); experiment: qHTS Assay for Inhibitors and Substrates of Cytochrome P450 2C19 (AID 899; active means well fitted curve in the direction sought with a large enough effect; inconclusive means small, poorly fitted or top-dose-only effect, or another doubt; inactive means no such curve, though single readings can be large; an effect the other way counts as inactive or inconclusive; further: potency means the concentration at half of the fitted maximal effect; nearly all actives have a fitted effect of over 60% in size)
How it was run: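 Signal comes from luciferase acting on luciferin released by CYP2C19-mediated hydroxylation of Luciferin-H EGE, 10uM (KM). Assay mix: 5nM enzyme, 50mM KPO4; 60 min at 37C with NADPH regeneration. Data normalized against 57uM ketoconazole.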

[5] = target: Cytochrome P450 2C9 (Homo sapiens) (UniProt P11712); experiment: qHTS Assay for Inhibitors and Substrates of Cytochrome P450 2C9 (AID 883; active means well fitted curve in the direction sought with a large enough effect; inconclusive means small, poorly fitted or top-dose-only effect, or another doubt; inactive means no such curve, though single readings can be large; an effect the other way counts as inactive or inconclusive; further: potency means the concentration at half of the fitted maximal effect; nearly all actives have a fitted effect of over 60% in size); settings: recombinant CYP2C9, luciferin-H luminescence, 60 min; activity change, negative = inhibition: at 57.1 µM (top of the series)
How it was run: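 Signal: luciferase luminescence reporting luciferin produced by CYP2C9. Conditions: 10nM enzyme, Luciferin-H 100uM at KM, 25mM KPO4, 37C, 60 min NADPH-driven reaction. Reference: 57uM sulphaphenazole as 100% inhibition.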

[6] = target: Vitamin D3 receptor (Homo sapiens) (UniProt P11473); experiment: qHTS for Inhibitors of the vitamin D receptor (VDR): Hit Validation using a Fluorescein Assay (AID 602200; active means well fitted curve in the direction sought with a large enough effect; inconclusive means small, poorly fitted or top-dose-only effect, or another doubt; inactive means no such curve, though single readings can be large; an effect the other way counts as inactive or inconclusive; further: potency means the concentration at half of the fitted maximal effect)
How it was run: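 Fluorescence polarization: 1.5 uM VDR-LBD, 5 uM LG19078 and 5 nM fluorescein-labeled SRC2-3 peptide (final) with compounds, 2 h at room temperature. Read at Ex 495/Em 520 nm; peptide-only wells served as control.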

[7] = qHTS for Inhibitors of the vitamin D receptor (VDR): Hit Validation using a Texas Red Assay (AID 602201; active means well fitted curve in the direction sought with a large enough effect; inconclusive means small, poorly fitted or top-dose-only effect, or another doubt; inactive means no such curve, though single readings can be large; an effect the other way counts as inactive or inconclusive; further: potency means the concentration at half of the fitted maximal effect)
How it was run: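 Fluorescence polarization with 1.5 uM VDR-LBD, LG19078 and 7 nM Texas Red (final). After 2 hours at ambient temperature, read at Ex 595 nm/Em 615 nm.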

[8] = target: Vitamin D3 receptor (Homo sapiens) (UniProt P11473); experiment: qHTS for Inhibitors of the vitamin D receptor (VDR): Hit Validation using a Beta-Lactamase Assay (AID 602202; active means well fitted curve in the direction sought with a large enough effect; inconclusive means small, poorly fitted or top-dose-only effect, or another doubt; inactive means no such curve, though single readings can be large; an effect the other way counts as inactive or inconclusive; further: potency means the concentration at half of the fitted maximal effect)
How it was run: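 Stably transfected HEK293 cells expressing VDR-GAL4 DNA-binding domain fusion with UAS-driven beta-lactamase reporter, activated by agonist LG190178; compounds incubated 18 h, then FRET beta-lactam substrate 2 h; cleaved substrate read at 447 nm emission.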

[9] = target: DNA polymerase iota (Homo sapiens) (UniProt Q9UNA4); experiment: qHTS for Inhibitors of Polymerase Iota: Confirmatory Assay for Cherry-picked Compounds (AID 720496; active means well fitted curve in the direction sought with a large enough effect; inconclusive means small, poorly fitted or top-dose-only effect, or another doubt; inactive means no such curve, though single readings can be large; an effect the other way counts as inactive or inconclusive; further: potency means the concentration at half of the fitted maximal effect); settings: Pol iota primer extension, TAMRA/BHQ fluorescence
How it was run: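 Using TAMRA dequenching as read-out, activity of 10 nM human Pol iota on 50 nM (final) primer/reporter/template substrate was tracked from 0 to 10 min, following a 15 min room-temperature compound preincubation.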

[10] = qHTS for Inhibitors of WRN Helicase: Thiazole Orange DNA Binding Counterscreen (AID 720499; active means well fitted curve in the direction sought with a large enough effect; inconclusive means small, poorly fitted or top-dose-only effect, or another doubt; inactive means no such curve, though single readings can be large; an effect the other way counts as inactive or inconclusive;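 further: drop in dye fluorescence marks compound binding to DNA; potency means the concentration at half of the fitted maximal effect; nearly all actives have a fitted effect of over 60% in size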)
How it was run: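 To exclude WRN hits acting through DNA binding, fluorescence of 100 nM thiazole orange bound to 50 nM unlabeled DNA is read (ex 480, em 530 nm) 15 min after compound addition at room temperature.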

[11] = target: DNA polymerase eta (Homo sapiens) (UniProt Q9Y253); experiment: qHTS for Inhibitors of Polymerase Eta: Confirmatory Assay for Cherry-picked Compounds (AID 720502; active means well fitted curve in the direction sought with a large enough effect; inconclusive means small, poorly fitted or top-dose-only effect, or another doubt; inactive means no such curve, though single readings can be large; an effect the other way counts as inactive or inconclusive; further: potency means the concentration at half of the fitted maximal effect); settings: Pol eta primer extension, TAMRA/BHQ fluorescence, 10 min
How it was run: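 Compounds are preincubated 15 min at room temperature with 10 nM human Pol eta, with buffer-only wells serving as negative control. Adding 50 nM final substrate starts the reaction, and TAMRA fluorescence is read over 10 min.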

[12] = Stat Signaling Pathway (AID 446); settings: ME-180 SIE beta-lactamase reporter, IL-6 stimulated, 5 h; at 7.69 µM (top of the series) unless noted;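 further: ME-180 cervical cancer cells given 40 pM IL-6 alongside compound; SIE-controlled beta-lactamase reporter measured as 460/530 nm FRET emission ratio; top concentration of the series differs between compounds; on the % scale 0 is the no-effect control and ±100 the full control effect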
How it was run: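 Overnight-plated ME-180 cells bearing a STAT Inducible Element beta-lactamase reporter; 5 h co-exposure to compound and 40 pM IL-6; values normalized to 300 pM IL-6 and 125 nM JAK inhibitor controls.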

[13] = qHTS Assay for Identification of Small Molecule Agonists for Hypoxia Response Element Signaling Pathway (AID 914; active means well fitted activation curve with a large enough effect in the signal ratio, with a control signal flat, not every such curve was filed as active; inconclusive means small, poorly fitted or top-dose-only effect, or effect the other way, or a change in a side signal; the % refers to the signal ratio; further: potency means the concentration at half of the fitted maximal effect; on activation: top concentration of the series differs between compounds; % of control where 0% means no effect); settings: ME-180 (cervical carcinoma) HRE-bla reporter, beta-lactamase ratio, CoCl2, 17 h; activation: hits give high values
How it was run: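 Compounds in a titration series were added to ME-180 reporter cells alongside an EC50 level of CoCl2. After 17 hours, beta-lactamase activity was read as the 460nm/530nm emission ratio of CCF4, giving AC50 values.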

[14] = target: 3',5'-cyclic-AMP phosphodiesterase 4B (Homo sapiens) (UniProt Q07343); experiment: qHTS Assay for Inhibitors of PDE-IV (AID 607; active means well fitted activation curve with a large enough effect in the main read-out, with a control signal flat, not every such curve was filed as active; inconclusive means small, poorly fitted or top-dose-only effect, or effect the other way, or a change in a side signal; further: potency means the concentration at half of the fitted maximal effect); settings: HEK293 ACTOne CNG channel cells, membrane potential fluorescence; activation (PDE inhibition): at 22.9 µM (top of the series)
How it was run: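 Live HEK293 cells with a modified cyclic nucleotide-gated (CNG) channel report intracellular cAMP via membrane-potential dye fluorescence (ex 535/em 590 nm). Endogenous PDE-IV was targeted. Compounds were tested at up to 22.9 uM final; RO 20-1724 100 uM served as control.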

[15] = target: Cytochrome P450 3A4 (Homo sapiens) (UniProt P08684); experiment: qHTS Assay for Inhibitors and Substrates of Cytochrome P450 3A4 (AID 884; active means well fitted curve in the direction sought with a large enough effect; inconclusive means small, poorly fitted or top-dose-only effect, or another doubt; inactive means no such curve, though single readings can be large; an effect the other way counts as inactive or inconclusive; further: potency means the concentration at half of the fitted maximal effect; nearly all actives have a fitted effect of over 50% in size)
How it was run: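 Luminescent readout of luciferin produced by CYP3A4 (20 nM) dealkylation of Luciferin-PPXE, 25 uM (its KM). NADPH-driven reaction ran 60 min at RT after 10 min compound preincubation; data scaled to 57 uM ketoconazole as 100% inhibition.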
Tags describe the fitted curve by direction and shape or compound fluorescence and quenching.

Chain of UniProt P05177 (P05177 whole entry, looked up): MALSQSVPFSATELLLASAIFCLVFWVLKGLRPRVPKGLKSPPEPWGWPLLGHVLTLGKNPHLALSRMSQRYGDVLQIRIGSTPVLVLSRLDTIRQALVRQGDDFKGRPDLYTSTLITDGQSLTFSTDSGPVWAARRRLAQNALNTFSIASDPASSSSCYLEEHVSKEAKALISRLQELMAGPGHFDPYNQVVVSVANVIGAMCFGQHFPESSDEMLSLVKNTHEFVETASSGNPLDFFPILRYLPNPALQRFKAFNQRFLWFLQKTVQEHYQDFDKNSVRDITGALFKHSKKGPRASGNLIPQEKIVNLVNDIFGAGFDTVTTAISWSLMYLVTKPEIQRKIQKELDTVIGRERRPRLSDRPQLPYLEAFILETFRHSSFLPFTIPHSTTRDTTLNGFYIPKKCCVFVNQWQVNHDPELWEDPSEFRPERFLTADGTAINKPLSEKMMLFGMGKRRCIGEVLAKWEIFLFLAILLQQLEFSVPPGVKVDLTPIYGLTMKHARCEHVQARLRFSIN
Chain of UniProt P11473 (P11473 whole entry, looked up, the tested form may be a part): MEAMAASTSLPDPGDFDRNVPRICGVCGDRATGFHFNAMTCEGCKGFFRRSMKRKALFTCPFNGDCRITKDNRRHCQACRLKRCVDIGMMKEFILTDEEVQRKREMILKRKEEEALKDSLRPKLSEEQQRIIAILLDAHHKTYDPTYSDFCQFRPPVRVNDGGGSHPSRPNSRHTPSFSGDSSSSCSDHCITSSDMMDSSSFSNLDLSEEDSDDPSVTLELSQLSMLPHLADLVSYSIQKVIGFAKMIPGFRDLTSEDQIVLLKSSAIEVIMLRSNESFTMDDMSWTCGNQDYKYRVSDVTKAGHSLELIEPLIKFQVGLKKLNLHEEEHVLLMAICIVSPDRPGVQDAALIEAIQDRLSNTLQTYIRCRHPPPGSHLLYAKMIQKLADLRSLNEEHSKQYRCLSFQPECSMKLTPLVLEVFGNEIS
Chain of UniProt P33261 (P33261 whole entry, looked up): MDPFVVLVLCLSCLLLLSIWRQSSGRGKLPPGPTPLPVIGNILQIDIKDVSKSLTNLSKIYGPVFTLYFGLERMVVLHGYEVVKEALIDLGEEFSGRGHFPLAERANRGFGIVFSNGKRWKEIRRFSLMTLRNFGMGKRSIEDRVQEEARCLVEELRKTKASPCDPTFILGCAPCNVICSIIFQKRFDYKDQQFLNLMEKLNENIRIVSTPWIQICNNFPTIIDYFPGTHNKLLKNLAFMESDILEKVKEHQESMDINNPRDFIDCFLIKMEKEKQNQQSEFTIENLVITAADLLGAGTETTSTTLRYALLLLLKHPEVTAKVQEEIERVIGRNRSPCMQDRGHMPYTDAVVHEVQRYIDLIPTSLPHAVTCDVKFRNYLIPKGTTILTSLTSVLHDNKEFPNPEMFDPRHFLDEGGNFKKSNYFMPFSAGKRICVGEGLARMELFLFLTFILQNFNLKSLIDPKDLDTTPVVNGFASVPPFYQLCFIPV
Chain of UniProt Q9UNA4 (Q9UNA4 whole entry, looked up): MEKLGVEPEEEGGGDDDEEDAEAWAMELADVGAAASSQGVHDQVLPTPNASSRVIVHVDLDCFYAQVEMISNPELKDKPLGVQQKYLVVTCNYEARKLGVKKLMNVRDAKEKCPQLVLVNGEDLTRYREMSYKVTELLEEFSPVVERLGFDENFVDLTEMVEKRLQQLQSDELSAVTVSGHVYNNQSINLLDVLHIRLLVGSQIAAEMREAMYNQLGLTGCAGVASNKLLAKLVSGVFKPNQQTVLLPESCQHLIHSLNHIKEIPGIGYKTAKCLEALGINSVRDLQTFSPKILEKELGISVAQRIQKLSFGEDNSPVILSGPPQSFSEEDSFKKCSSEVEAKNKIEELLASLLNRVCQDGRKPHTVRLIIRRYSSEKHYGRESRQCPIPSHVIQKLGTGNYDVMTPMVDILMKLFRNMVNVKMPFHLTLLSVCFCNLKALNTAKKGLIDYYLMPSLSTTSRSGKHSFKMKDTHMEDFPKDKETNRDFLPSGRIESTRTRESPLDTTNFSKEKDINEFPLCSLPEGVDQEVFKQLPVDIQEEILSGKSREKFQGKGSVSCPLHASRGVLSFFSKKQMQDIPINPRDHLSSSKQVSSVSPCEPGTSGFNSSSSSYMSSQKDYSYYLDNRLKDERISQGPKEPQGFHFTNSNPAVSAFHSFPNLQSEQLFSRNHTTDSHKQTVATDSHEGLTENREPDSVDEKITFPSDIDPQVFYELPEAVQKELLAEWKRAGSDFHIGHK
Chain of UniProt P08684 (P08684 whole entry, looked up): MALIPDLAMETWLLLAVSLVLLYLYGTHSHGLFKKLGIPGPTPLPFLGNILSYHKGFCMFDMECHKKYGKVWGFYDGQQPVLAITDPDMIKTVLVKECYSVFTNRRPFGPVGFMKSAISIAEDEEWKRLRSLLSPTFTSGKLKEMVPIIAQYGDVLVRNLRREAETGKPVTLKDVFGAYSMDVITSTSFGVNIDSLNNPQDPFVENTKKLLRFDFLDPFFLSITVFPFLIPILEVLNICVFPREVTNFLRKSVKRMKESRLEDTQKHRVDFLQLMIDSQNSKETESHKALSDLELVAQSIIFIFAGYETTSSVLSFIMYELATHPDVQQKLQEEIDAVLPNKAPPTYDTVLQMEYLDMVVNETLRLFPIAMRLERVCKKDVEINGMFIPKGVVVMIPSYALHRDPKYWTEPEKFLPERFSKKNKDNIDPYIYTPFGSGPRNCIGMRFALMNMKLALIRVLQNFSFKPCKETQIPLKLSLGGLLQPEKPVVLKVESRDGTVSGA
Chain of UniProt Q9Y253 (Q9Y253 whole entry, looked up): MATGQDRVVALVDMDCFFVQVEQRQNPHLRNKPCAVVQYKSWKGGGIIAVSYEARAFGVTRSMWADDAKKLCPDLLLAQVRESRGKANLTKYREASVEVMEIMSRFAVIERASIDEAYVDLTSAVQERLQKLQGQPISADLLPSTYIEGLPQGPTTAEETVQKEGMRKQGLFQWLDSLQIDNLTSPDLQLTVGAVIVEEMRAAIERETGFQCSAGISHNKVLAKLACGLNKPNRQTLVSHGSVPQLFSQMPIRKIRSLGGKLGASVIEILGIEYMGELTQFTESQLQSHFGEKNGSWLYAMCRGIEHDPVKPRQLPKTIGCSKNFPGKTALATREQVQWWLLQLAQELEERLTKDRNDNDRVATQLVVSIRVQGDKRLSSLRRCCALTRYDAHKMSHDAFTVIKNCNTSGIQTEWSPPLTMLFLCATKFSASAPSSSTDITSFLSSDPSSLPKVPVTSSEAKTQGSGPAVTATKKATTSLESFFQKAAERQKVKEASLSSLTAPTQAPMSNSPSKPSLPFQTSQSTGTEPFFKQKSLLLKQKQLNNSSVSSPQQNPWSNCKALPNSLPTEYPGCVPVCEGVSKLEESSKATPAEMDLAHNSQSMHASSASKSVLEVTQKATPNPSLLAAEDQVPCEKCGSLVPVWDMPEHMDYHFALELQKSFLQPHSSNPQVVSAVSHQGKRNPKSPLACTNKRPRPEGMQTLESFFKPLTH
Chain of UniProt Q07343 (Q07343 whole entry, looked up): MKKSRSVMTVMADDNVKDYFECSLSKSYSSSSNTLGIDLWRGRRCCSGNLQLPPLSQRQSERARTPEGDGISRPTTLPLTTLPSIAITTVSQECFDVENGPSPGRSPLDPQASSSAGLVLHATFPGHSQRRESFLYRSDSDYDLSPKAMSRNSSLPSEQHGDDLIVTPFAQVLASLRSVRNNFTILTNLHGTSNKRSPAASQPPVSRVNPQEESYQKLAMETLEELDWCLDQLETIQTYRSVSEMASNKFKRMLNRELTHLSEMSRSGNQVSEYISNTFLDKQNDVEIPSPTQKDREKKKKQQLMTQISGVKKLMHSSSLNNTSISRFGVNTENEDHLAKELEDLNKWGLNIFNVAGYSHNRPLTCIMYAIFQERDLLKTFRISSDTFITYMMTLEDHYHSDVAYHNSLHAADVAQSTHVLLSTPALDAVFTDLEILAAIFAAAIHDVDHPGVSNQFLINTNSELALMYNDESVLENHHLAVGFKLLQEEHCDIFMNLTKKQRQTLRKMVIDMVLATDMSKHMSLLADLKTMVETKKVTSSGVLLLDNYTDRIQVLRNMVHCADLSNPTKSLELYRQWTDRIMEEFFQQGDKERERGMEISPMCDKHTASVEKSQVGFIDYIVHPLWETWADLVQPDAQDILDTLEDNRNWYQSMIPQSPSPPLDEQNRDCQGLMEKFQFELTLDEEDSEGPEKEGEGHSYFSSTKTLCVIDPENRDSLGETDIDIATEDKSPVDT
Chain of UniProt P11712 (P11712 whole entry, looked up): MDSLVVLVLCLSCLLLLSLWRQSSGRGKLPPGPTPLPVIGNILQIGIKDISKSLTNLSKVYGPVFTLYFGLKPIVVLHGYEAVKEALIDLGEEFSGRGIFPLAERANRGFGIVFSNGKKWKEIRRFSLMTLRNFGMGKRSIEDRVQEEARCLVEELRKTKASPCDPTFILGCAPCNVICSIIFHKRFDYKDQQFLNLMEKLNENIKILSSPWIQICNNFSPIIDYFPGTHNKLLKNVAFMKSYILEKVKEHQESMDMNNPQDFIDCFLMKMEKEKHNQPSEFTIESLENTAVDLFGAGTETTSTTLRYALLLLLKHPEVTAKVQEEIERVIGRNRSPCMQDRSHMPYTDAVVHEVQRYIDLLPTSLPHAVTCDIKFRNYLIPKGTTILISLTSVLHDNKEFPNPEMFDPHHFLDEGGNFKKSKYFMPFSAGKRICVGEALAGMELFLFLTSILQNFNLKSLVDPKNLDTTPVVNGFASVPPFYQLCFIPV

Cc1nc(SCC(=O)c2ccccc2)c(C#N)c(-c2ccco2)c1C(=O)NCc1ccco1
activity change, negative = inhibition [1]: inconclusive: -36.5% [inhibitor] | activity change, negative = inhibition [2]: inconclusive: -77.5% [inhibitor]

Cc1noc(C)c1-c1cncnc1NCCN1CCOCC1
activity change, negative = inhibition [1]: inactive: 4.2% [at 7.69 µM] | Potency [3]: inconclusive: 31.6 µM [decreasing] | Potency [4]: inconclusive: 0.0398 µM [inhibitor, full curve, poor fit]

Nc1nc(Sc2ccc([N+](=O)[O-])c3nonc23)c2[nH]cnc2n1
activity change, negative = inhibition [1]: inconclusive: 43.8% [activator] [at 7.69 µM] | activity change, negative = inhibition [3]: inactive: -26.1% [at 2.29 µM] | activity change, negative = inhibition [2]: inconclusive: -120% [inhibitor] [at 7.69 µM] | Potency [5]: active: 3.16 µM | Potency [6]: inconclusive: 2.51 µM [inhibitor, full curve, poor fit] | Potency [7]: inconclusive: 1.41 µM [inhibitor, full curve] | Potency [8]: inconclusive: 29.1 µM [inhibitor, single point] | Potency [9]: active: 21.2 µM | Potency [10]: active: 42.9 µM | Potency [11]: active: 30.1 µM

COc1cccc(Cn2c(=O)c(-c3cc(F)cc(F)c3)nc3cnc(N4CCN(C)CC4)nc32)c1
activity change, negative = inhibition [1]: inconclusive: 59.2% [activator] [at 7.69 µM] | Potency [3]: inactive | activity change, negative = inhibition [2]: inconclusive: 106% [activator] [at 7.69 µM] | activity, negative = inhibition [12]: inconclusive: 63.7% [activator] | activation [13]: inconclusive: 138%

N[C@@H](CSCc1ccc(I)cc1)C(=O)O
activity change, negative = inhibition [1]: inactive: -1.51% [at 7.69 µM] | activity change, negative = inhibition [2]: inactive: 0.82% [at 7.69 µM]

COc1ccc(NC(=O)CSC2=C(C#N)C(c3ccco3)C3=C(CCCC3=O)N2)c(OC)c1 (stereo not given)
activity change, negative = inhibition [1]: inconclusive: -32% [inhibitor] | activity change, negative = inhibition [2]: inactive: -6.5%

O=c1c2ccccc2[nH]c(=S)n1CCN1CCC(=C(c2ccc(F)cc2)c2ccc(F)cc2)CC1
activity change, negative = inhibition [1]: inactive: 10.4% | activity change, negative = inhibition [2]: inconclusive: -79.8% [inhibitor]

c1ccc([C@H](c2cccc3c2ccc2ccccc23)[C@H](c2ccccc2)c2cccc3c2ccc2ccccc23)cc1
activity change, negative = inhibition [1]: inactive: 15.9% [at 7.69 µM] | activity change, negative = inhibition [3]: inactive: -9.4% [at 11.4 µM] | activity, negative = inhibition [12]: inconclusive: -30.6% [inhibitor] | activation [13]: inconclusive: 0.126%

COc1cccc(Nc2ncc3nc(CCc4ccccc4)c(=O)n(CCC#N)c3n2)c1
activity change, negative = inhibition [1]: inactive: -11.6% [at 7.69 µM] | Potency [3]: inactive | Potency [14]: inconclusive: 15.8 µM [activator, single point] | Potency [15]: inconclusive: 2 µM [inhibitor, full curve] | Potency [13]: inconclusive: 3.16 µM [fluorescent, side channel]
